Results from the supplement of paper PMC11417369.
This is one part of the list.

tested on: PF3D7_0420300 AP2 domain 1 (GST-tagged); assay: gcPBM binding intensity (ln(normalized median fluorescence intensity)); higher = stronger DNA binding
In short: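 Plasmodium falciparum DNA-binding domains carrying a GST tag were expressed in E. coli and applied for 1 h, at about 25 μg on average, to an Agilent 4 × 180k array. The array held primer-extended double-stranded 36-bp intergenic genomic probes together with negative controls, and binding took place in 1× PBS with 1% milk, 0.2 mg/ml BSA, 0.5% salmon testes DNA and 0.03% Triton X-100. An Alexa488 anti-GST antibody detected bound protein, and the array was scanned at 488 nm. Binding intensity is taken as the highest Masliner-normalised natural-log median intensity across replicate spots of either probe orientation.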

Row | Sequence | gcPBM binding intensity (ln)
1 | TTTATACAATTAGACACACACAAAAAGTATATATAT [CACACA_site1082] | 9.89
2 | CATTCAAAGAAAAACTGTACGTGTAGCAAACGTCAT [XGTACX_site2576] | 9.3
3 | ATATAATTACATTGATGTACACGAAATGATTAACAT [XGTACX_site5183] | 9.26
4 | ATGGGTATATTTCCACGTACAAAAAATCCGAATTGC [XGTACX_site1490] | 9.23
5 | CAAATACCCGGACACACACACACAAAAAAAAAAAAA [CACACA_site4441] | 9.99
6 | ATTATTAATAATTGTGTGCACAAATATTTATATGCT | 9.34
7 | ATATCAATATAAAGTACACACTATAGTATGTATTAT [CACACA_site5286] | 9.6
8 | ATATTGTATTATCTTTATGTACCAAAAAAAAAAAAA [CACACA_negctrl_site1036] | 8.91
9 | ATAAAAATAAAAAACTGTACATACAAGATGTTACAG [XGTACX_site6690] | 9.19
10 | ATGCTTCCTTAGGAATGTACACACATATATAATATG [XGTACX_site873] | 9.56
11 | AAATAATATTTTACATGTACATAATAATTATTGGAT [XGTACX_site2783] | 9.3
12 | TAAATATTTAAATATTGTACTAGGTATAATTGAATA [XGTACX_site3604] | 9.1
13 | TTATTGTACTTGCTCGCATGCAATAAAAATATATTA [TGCATGCA_site580] | 9.04
14 | GTATATATTAAAAAAAAAAAAAAAAAATTAAAATTA [CACACA_negctrl_site572] | 8.9
15 | GGAATATTAATAAGAGTGCATTTTGTATTCAATATG | 9.18
16 | TAGACTGGACATTAATGTACATAAATATATATGTAT [XGTACX_site7726] | 9.21
17 | TATAAGAAAAATAACACACACATAAACATATATACA [CACACA_site2785] | 10.2
18 | AAAAAAAAAATTCATTGTACATATATATATATATAT [XGTACX_site8346] | 8.96
19 | ATATATATATATATATGTACTTATTTATATATTTAT [XGTACX_site7811] | 9.17
20 | TGGTTATTTATCTTTATTATAAATATTTACAAATAA [CACACA_negctrl_site1773] | 9.11
21 | ATAAGAAGAAGAAAAACACACATATGTAGATATATA [CACACA_site7469] | 9.62
22 | ATCTATTCACACTTTTAAAAATTAAATATATTATAT [TGCATGCA_negctrl_site610] | 9.19

Row | Sequence | gcPBM binding intensity (ln)
23 | TAATTTTTTTTTTATAGTACACATATTAAAGAATTA [XGTACX_site2485] | 8.84
24 | ATATATATAAACAAAAGTACATATATAAATTCATTT [XGTACX_site3482] | 9.25
25 | TCTTATATTATATTGTGTATTAAAATTTAACTTCAA [TGCATGCA_negctrl_site565] | 9.06
26 | TTAAAGTTACATTCGACACACACATAACAACTAAAT [CACACA_site9130] | 9.81
27 | ATATATGTATATATGTACATGAATATATAAAGAAAA [CACACA_negctrl_site315] | 9.33
28 | ACAAATAAATAAATATGTACTTAATTATATAATTGA [XGTACX_site5626] | 9.18
29 | GTTTATATTTAATTTTTTTGTTTTTTTGTGTAATTC [XGTACX_negctrl_site194] | 9.5
30 | TATTTATACTAATATGCATGTAATCGAAATACAGCT [TGCATGCA_site457] | 9.09
31 | ATTATCCATCAAAAGGTGCAAATTTTTAATTATAAA [GTGCAC_site9932] | 8.94
32 | AAAGATGATAAAATATGTACACACAGTTTATACATT [XGTACX_site8703] | 9.39
33 | TATATATATATATGTAGTACTTTACAAAATAATTCG [XGTACX_site5322] | 8.99
34 | TAGTTATCACATTGCACACACATTTCCTTTTACATT [CACACA_site7589] | 10
35 | TTTATATTTATGTAGGTGCATTTGTTTACAACATAT [GTGCAC_site9511] | 9.33
36 | TTATTTATACGCTATGAGTTTGATACAAACAATTAA [XGTACX_negctrl_site456] | 8.99
37 | TTTTTACGGAATTAGAGAAAAGAAATAAAAAAAAAA [XGTACX_negctrl_site436] | 8.76
38 | AATAAATTCATGATAGTGCAAAAATTATTTTTGTTA | 9.21
39 | GCATAACCTTTATATTGTACATATACCTTTATTGTT [XGTACX_site6046] | 9.7
40 | TATTCAAAGAAAAACTGTACGTGTAGCCTACATCCT [XGTACX_site7707] | 9.12
41 | TTTTTTGTTATTTTCCGTTTTTTTCCATTATAATTT [GTGCAC_negctrl_site461] | 9.76
42 | ACGTTAAAAACAAGTTGTACACAATAAATTATTCTT [XGTACX_site6321] | 9.24
43 | TTATCACATTATTGCACACACATAAAGAAAAAAATA [CACACA_site2841] | 9.74
44 | AATAAAAAGAAACACACACACACACCCATATATATA [CACACA_site3589] | 10.2
